Source: PubChem BioAssay AID463173 (ICCB-Longwood Screening Facility, Harvard Medical School, 2010)
Out of some 52,000 compounds screened, about 4,300 (8.3%) were called active. Rule as the data show it: active = survival mostly below about 52% (no sharp cut-off); inactive = mostly above about 56%. Some of the results follow.

What follows are compounds tested on DeltatarO mutant (assay: growth inhibition of S. aureus wild type versus tarO mutant, primary screen, teichoic acid synthesis inhibitors, RN4220, OD600 (AID 463173)). Settings: OD600, 18 h, active compounds read low, screened at 18.75 µg/mL (by protocol).

SMILES	survival
COc1ccc2oc(-c3ccc(C)c(NC(=O)c4sc5ccccc5c4Cl)c3)nc2c1	active: 48%
Cc1cccc(C)c1NC(=O)N1CCC(C(N)=O)(N2CCCCC2)CC1	inactive: 106%
O=C(Nc1ccc(F)cc1F)c1cc2ccc3cccnc3c2[nH]1	inactive: 57%
Cc1ccccc1Nc1cc(C(=O)NC2CCC(C)CC2)c2ccccc2n1 (configuration not stated)	inactive: 78%
CCOC(=O)c1ccc(NC(=O)c2c(NCc3cccc(OC)c3)sc3c2CCC3)cc1	inactive: 69%
Cc1cccc(CSc2nc3ccncc3n2Cc2ccc(C(=O)O)cc2)c1	inactive: 72%
O=C(Nc1ccc(-c2cn3cccnc3n2)cc1)c1ccccc1F	inactive: 80%
Cc1ccc(OCc2ccc(-c3nc(C#N)c(N4CCN(c5cccc(Cl)c5)CC4)o3)o2)cc1	inactive: 55%
CCOc1ccccc1CNC(=O)CCCn1nc(C)c2sc3ccccc3c2c1=O	inactive: 85%
COc1cc(NC(=O)Cn2nc(C(F)(F)F)c3c2CCCC3)cc(OC)c1OC	inactive: 83%
O=C(CSc1nnnn1Cc1ccccc1)Nc1ccccc1	inactive: 89%
COc1ccc(N2CCN(c3oc(-c4ccccc4C)nc3S(=O)(=O)c3ccccc3)CC2)cc1	inactive: 116%
Cc1cccc(OCC(=O)Nc2c(C(=O)N3CCN(c4ccccc4)CC3)oc3ccccc23)c1	inactive: 77%
CCCCN(CCCC)S(=O)(=O)c1ccc(C(=O)Nc2sc3c(c2C(N)=O)CCN(CC)C3)cc1	inactive: 77%
COc1cc(NC(=O)Cn2nc(Cc3cccnc3)c3ccccc3c2=O)cc(OC)c1OC	inactive: 71%
CCc1nc2ccccc2n1CCCCOc1ccc(Cl)cc1	active: -3%
CC(C)n1nnnc1SCC(=O)OC1CCCCC1	inactive: 75%
CCOC(=O)c1c(C)[nH]c(CCC(=O)Nc2ccccc2OCC)c1C	inactive: 78%
COc1ccc2oc(=O)cc(CN3CCN(c4ccccc4OC)CC3)c2c1	inactive: 77%
COCCCNC(=O)CSc1nc(-c2ccc(OC)cc2)[nH]c1-c1ccc(OC)cc1	inactive: 86%
CN(CC(=O)Nc1ccc2c(c1)OCO2)Cc1ccccc1	inactive: 53%
CCC(=O)N1c2ccccc2CC1C(=O)NCCN1CCN(c2cccc(Cl)c2)CC1 (configuration not stated)	inactive: 87%
CC(=O)N1CCCc2cc(S(=O)(=O)N3CCC(C(=O)NCc4ccccc4Cl)CC3)ccc21	inactive: 112%

SMILES	survival
O=C(NCc1ccccc1Cl)c1ccc2nc(Cc3ccccc3)oc2c1	inactive: 60%
COc1ccc(CNC(=O)c2ccc(CS(=O)(=O)c3ccc(OC)cc3)o2)cc1	inactive: 94%
Cc1nn(CCC(=O)N2CCN(c3ccccc3F)CC2)c(C)c1S(=O)(=O)N1CCCC1	inactive: 109%
COc1ccc(NC(=O)c2cc3ccc(O)cc3o/c2=N\O)cc1	inactive: 97%
CCC1CN(C(=O)N2CCC(C(=O)NCCCc3ccccc3)CC2)c2ccccc2O1 (configuration not stated)	inactive: 69%
CCN1CCN(c2cc(C)c3cc(NC(=O)c4cc(Br)ccc4Cl)ccc3n2)CC1	active: 32%
CCCC12CN3CC(C)(CN(C1)C3c1cn(CC)c3ccccc13)C2=O (configuration not stated)	inactive: 83%
Cc1ccc(S(=O)(=O)N(CC(=O)O)CC(=O)O)cc1	inactive: 72%
Cc1cc(C)cc(NS(=O)(=O)N(C)C)c1	inactive: 75%
CCN(CCCNC(=O)CSc1cc(=O)n(C)c2cc(Cl)ccc12)c1ccccc1	inactive: 59%
Cc1ccc(NC(=O)CSc2ncc3c(n2)-c2ccccc2N(C)S3(=O)=O)c(Cl)c1	inactive: 63%
COc1ccc(CN(C)c2ccc(-c3nc(C)no3)cc2[N+](=O)[O-])cc1	inactive: 75%
Cc1cc(=O)n2nc(N3CCC(C(=O)NCc4ccccc4F)CC3)sc2n1	inactive: 108%
CN1CCN(CCNC(=O)c2cnn(-c3cccc(Cl)c3)c2C2CCN(C(=O)OC(C)(C)C)CC2)CC1	inactive: 71%
CCc1ccc(CNC(=O)Cn2nc(C)c3c(C)n(-c4ccc(C)cc4)nc3c2=O)cc1	inactive: 79%
CCC(CC)C(=O)Nc1cccc(-c2nc3ncccn3c2C)c1	inactive: 77%
CCN(CC)C(=O)c1sc2c(c1C)c(=O)n(-c1ccc(OC)cc1OC)c(=O)n2Cc1cc(C)ccc1C	inactive: 87%
COc1cccc(-c2nn(C)c3sc(C(=O)NCc4ccc(C)cc4)cc23)c1	inactive: 67%
CCOC(=O)c1cc(S(=O)(=O)NCc2ccc(F)cc2)[nH]n1	inactive: 134%
O=S(=O)(c1ccccc1)N1CCCC(c2nc(-c3cccs3)no2)C1 (configuration not stated)	inactive: 67%
Cc1ccc(-c2nc(C)c(CCNC(=O)C(=O)Nc3ccc(C)c(Cl)c3)s2)cc1	inactive: 74%
CC(=O)Nc1ccccc1OCc1cc(=O)n2c(C)csc2n1	inactive: 102%
CN(C)C(=O)CSc1nnc2n1C(C)(C)Cc1ccccc1-2	inactive: 80%

SMILES	survival
O=C(O)C1=C(C(=O)Nc2ccc(F)c(Cl)c2)CCCC1	inactive: 78%
N#Cc1c(C(F)(F)F)cc(-c2ccco2)nc1SCc1ccncc1	inactive: 114%
O=S(=O)(NCc1ccco1)c1cccc(S(=O)(=O)N2CCCCC2)c1	inactive: 90%
Cc1cc2c(C)cc(=O)oc2c2c1NCCC2	inactive: 96%
COc1cccc(-c2n[nH]c3c2C(c2cccc(O)c2)N(C)C3=O)c1 (configuration not stated)	inactive: 47%
CCS(=O)(=O)N1CC(=O)N(c2cccc(C)c2C)C(C)(C(=O)NC2CCCCCC2)C1 (configuration not stated)	inactive: 94%
COc1ccc(CNC(=O)c2cnn(-c3ccc(OC)cc3)c2C2CCN(C(=O)OC(C)(C)C)CC2)cc1	inactive: 74%
COCCCNc1ncnc2ccc(Br)cc12	inactive: 83%
CN1CCN(C(=O)c2ccc(N(C)S(C)(=O)=O)cc2)CC1	inactive: 107%
Cc1nc(SCC(=O)Nc2ccccc2Cl)cc(-c2ccccc2)n1	active: 56%
Cc1c2cnn(-c3ccccc3)c(=O)c2c(C)n1CC(=O)N1CCN(c2cccc(Cl)c2)CC1	inactive: 91%
NC(CC(=O)OC1CCCCC1)C(=O)OC1CCCCC1 (configuration not stated)	inactive: 89%
CCN(CC)c1nn2c(=O)c(C(=O)NCc3cccc(OC)c3OC)cnc2s1	inactive: 83%
COc1cccc(NC(=O)CSc2cc(C)[nH]c(=O)n2)c1	inactive: 83%
COCCCNC(=O)c1sc2nc(C)c(C(=O)Nc3ccc(Cl)cc3)c(-c3ccc(Br)cc3)c2c1N	inactive: 56%
CC1N=C2c3ccccc3N=C(SCC(=O)NCc3ccc(Cl)cc3)N2C1=O (configuration not stated)	inactive: 69%
Cc1cccc(NCN2C(=O)S/C(=C/c3ccc(N(C)C)cc3)C2=O)c1	inactive: 73%
Cc1ccc2onc(CNC(=O)N(C)Cc3ccccc3)c2c1	inactive: 73%
CCN(CC)CCNC(=O)c1sc2nc(C)cc(C)c2c1-n1cccc1	inactive: 86%
COc1ccc(-n2c(Cc3ccccc3)nnc2SCc2nc(-c3ccccc3C)no2)cc1	inactive: 64%
CCc1ccccc1NC(=O)Cn1c(C(=O)OC)cc2oc(C)cc21	inactive: 86%
CCOC(=O)c1ccc(NC(=O)c2cccc3c(=O)c4c([nH]c23)CCCC4)cc1	inactive: 60%
COc1ccc(NC(=O)Cn2ccn(Cc3ccccc3)c(=O)c2=O)cc1Cl	inactive: 50%

SMILES	survival
CN(C(=O)CSc1cn(CC(=O)N2CCCC2)c2ccccc12)c1ccccc1	inactive: 55%
O=C(Nc1ccc(Br)cc1F)c1ccc2nc(CCc3ccccc3)oc2c1	inactive: 92%
O=C1c2[nH]nc(-c3ccccc3O)c2C(c2cccc(Br)c2)N1Cc1ccncc1 (configuration not stated)	inactive: 85%
CCCCOc1ccc(S(=O)(=O)Nc2ccc(-c3ccc(N4CCCCC4)nn3)cc2)cc1	inactive: 77%
Cc1cccc2c1-c1sc(C(=O)Nc3ccccc3C(N)=O)cc1CO2	inactive: 110%
CCC(=O)Nc1cc(-c2nc3cc(C)cc(C)c3o2)ccc1C	inactive: 65%
Cc1ccccc1OCC(=O)NCC(c1ccc(Cl)cc1)N1CCOCC1 (configuration not stated)	inactive: 70%
Cc1cc(C)cc(NC(c2cccc(Cl)c2)c2nnc(-c3ccccc3)o2)c1 (configuration not stated)	inactive: 92%
Cc1c(C(=O)N(C)c2ccccc2)sc2nc(-c3ccc(F)cc3)cn12	inactive: 78%
CCc1cc2c(cc3c(=O)n(CC(=O)NC4CCC(C)CC4)nc(CC)n32)s1 (configuration not stated)	inactive: 115%
O=C1c2oc3ccccc3c(=O)c2C(c2ccccc2F)N1Cc1ccc2c(c1)OCO2 (configuration not stated)	inactive: 77%
COc1cc2c(cc1OC)C(COc1ccccc1OC)N(C(=O)c1ccc(S(=O)(=O)N3CCCC3)cc1)CC2 (configuration not stated)	active: 32%
Cc1ccc(C)c(NC(=O)N2CCN(c3nnc(C)c4c(C)n(-c5ccccc5)nc34)CC2)c1	inactive: 88%
CCOC(=O)c1cc(-c2ccccc2)n(-c2cccc(C(=O)NC(C)CC)c2)c1C (configuration not stated)	inactive: 49%
NC(=O)Cn1cnc2sc3c(c2c1=O)CCCC3	inactive: 65%
O=C(Cn1ncc2c3ccccc3n(Cc3ccc(F)cc3)c2c1=O)NC1CCCCCC1	inactive: 80%
COc1ccc(Nc2nc(-c3ccccc3)c3cc(Br)ccc3n2)cc1	active: 23%
Cc1ccc(N(C)S(=O)(=O)c2ccc(-c3cnc(C4CC4)o3)cc2)cc1	inactive: 67%
CC(C)Oc1ccc(CNC(=O)c2ccc3c(c2)N(Cc2ccc(F)cc2)CCS3)cc1	inactive: 65%
O=C(C1CCCCC1)N(Cc1cccnc1)c1nc2c(F)cccc2s1	inactive: 86%
Clc1ccccc1CNc1nc2ccccc2c2nc(-c3ccccc3)nn12	inactive: 108%
CCOc1ccc(NC(=O)CSc2ccc3ccccc3n2)cc1	inactive: 67%
COCCCNC(=O)CN1C(=O)COc2ccc(S(=O)(=O)N3CCOCC3)cc21	inactive: 110%
